Data taken from PubChem BioAssay AID1768 (National Center for Advancing Translational Sciences (NCATS), 2009).
Among all 270,000 compounds or so, about 620 (0.23%) were called active. Inconclusive results, whose numbers are uncertain, are shown with a selection of clear calls. Calls follow the shape of the dose curve; as a rule, active = well fitted inhibition curve with a large enough effect in the polarisation, with a control signal flat (not every such curve was filed as active); inconclusive = small, poorly fitted or top-dose-only effect, or effect the other way, or a change in a side signal; inactive = no such curve, though single readings can be large or run the other way; the % refers to the polarisation. Potencies of inconclusive entries are doubtful fits and often do not repeat. A note “side channel” means that the fit belongs to a control or component signal, not to the main read-out.

target: Menin (Homo sapiens) (UniProt O00255); test: qHTS Assay for Inhibitors Targeting the Menin-MLL Interaction in MLL Related Leukemias: Competition With Texas Red Labeled MLL-derived Mutant Peptide; conditions: fluorescence polarization; series mostly up to 61.6 µM
UniProt O00255, sequence (O00255 whole entry, looked up): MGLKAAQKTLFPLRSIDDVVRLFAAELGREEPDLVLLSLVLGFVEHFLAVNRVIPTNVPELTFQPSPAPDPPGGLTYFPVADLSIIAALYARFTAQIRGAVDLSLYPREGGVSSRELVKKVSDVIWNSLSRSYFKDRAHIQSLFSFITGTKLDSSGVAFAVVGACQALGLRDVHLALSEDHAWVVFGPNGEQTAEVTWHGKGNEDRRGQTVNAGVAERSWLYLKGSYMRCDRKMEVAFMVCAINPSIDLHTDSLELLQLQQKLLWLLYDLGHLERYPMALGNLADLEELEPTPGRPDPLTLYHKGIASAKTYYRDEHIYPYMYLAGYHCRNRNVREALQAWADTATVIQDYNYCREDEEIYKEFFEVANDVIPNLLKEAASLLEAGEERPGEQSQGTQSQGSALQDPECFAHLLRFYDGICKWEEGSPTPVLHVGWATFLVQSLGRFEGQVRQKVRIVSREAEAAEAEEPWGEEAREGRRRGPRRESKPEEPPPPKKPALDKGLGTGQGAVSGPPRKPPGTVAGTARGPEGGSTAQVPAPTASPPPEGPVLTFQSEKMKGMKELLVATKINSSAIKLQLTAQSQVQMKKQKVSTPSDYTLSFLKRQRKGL
Potency is read from the fitted curve at half-maximal effect; tags tell the direction and shape of the fitted curve or compound fluorescence and quenching.

Potency, inactive:
CCc1c(C)sc(NC(=O)CSc2nc3c(c(C(F)(F)F)n2)CCc2ccccc2-3)c1C#N

Potency, inconclusive:
C[C@]12CCC3C(CC[C@H]4CCCC[C@]34C)C1CC[C@@]2(O)CNCCO (stereo not given in full) 17.8 µM [fluorescent, side channel, partial curve]
O=C(NCc1cccs1)c1noc2c1CCCC2 5.62 µM [inhibitor, single point]
COc1ccc(NC(=S)NNC(=O)COc2ccc(Cl)cc2Cl)cc1 25.1 µM [quencher, side channel, single point]
S=C(NCc1ccco1)NCc1ccccc1Cl 11.2 µM [quencher, side channel, partial curve, poor fit]
CC(C)Oc1ccc2c(=O)c3cc(C(=O)O)ccc3oc2c1 39.8 µM [inhibitor, partial curve]
CCN(CC)S(=O)(=O)c1ccc(S(=O)(=O)N(CC(=O)Nc2ccccc2)Cc2ccco2)cc1 28.2 µM [quencher, side channel, partial curve]
COC(=O)c1ccc(CSc2nc3ccccc3[nH]2)o1 8.91 µM [inhibitor, single point]
Cc1ccc(N(c2ncnc(N)c2[N+](=O)[O-])C2CCCCC2)cc1 3.16 µM [inhibitor, full curve]
COc1ccc(C(=O)N/N=c2\oc3ccccc3cc2C(N)=O)cc1 11.2 µM [fluorescent, side channel, partial curve]
COC(=O)[C@@]1(Cc2ccc(OC)cc2)[C@H]2c3cc(C(=O)N4CCCC4)n(Cc4ccc(OC)c(OC)c4)c3C[C@H]2CN1C(=O)c1ccccc1 3.16 µM [fluorescent, side channel, full curve]
Cc1ccoc1C(=O)Nc1ccc2ccccc2c1 17.8 µM [quencher, side channel, single point]
COn1c2c(c3c4nonc4ccc31)CCCC2 28.2 µM [quencher, side channel, single point]
Cc1cccc(-n2cc(CN(C)Cc3nccn3C)c(-c3cccc(F)c3)n2)c1 3.16 µM [fluorescent, side channel, full curve, poor fit]
Oc1c(C=C2N=c3ccccc3=N2)sc(=S)n1-c1ccc(F)cc1 22.4 µM [quencher, side channel, partial curve]
